# Test results published in PubChem BioAssay AID360 (National Center for Advancing Translational Sciences (NCATS), 2006).
# Out of some 48,000 compounds screened, about 550 (1.1%) were called active. Another 4% or so got no clear call; they are omitted. Cut-off read from the data, not from the text of the source: active = potency below about 15 µM; inconclusive = mostly about 16 µM to 33 µM; inactive = weaker than that. Some of the results follow.
# Target: Lysosomal acid glucosylceramidase (Homo sapiens) (UniProt P04062)
# Experiment: Glucocerebrosidase;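 note: the screen sought inhibitors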
# Settings: purified enzyme, resorufin glucoside fluorescence (screen aimed at inhibitors), 20 min
# Method in brief: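 Normal human glucocerebrosidase (0.2 nM final) was assayed with resorufin β-D-glucopyranoside (30 uM final) in 50mM citric acid/KH2PO4, 10mM sodium taurocholate, 0.01% tween-20, pH 5.9. Compounds were titrated; fluorescence (Ex 548, Em 600) read after 20 min at RT.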
# Potency is the fitted concentration of half-maximal effect.
# Chain of UniProt P04062 (P04062 whole entry, looked up): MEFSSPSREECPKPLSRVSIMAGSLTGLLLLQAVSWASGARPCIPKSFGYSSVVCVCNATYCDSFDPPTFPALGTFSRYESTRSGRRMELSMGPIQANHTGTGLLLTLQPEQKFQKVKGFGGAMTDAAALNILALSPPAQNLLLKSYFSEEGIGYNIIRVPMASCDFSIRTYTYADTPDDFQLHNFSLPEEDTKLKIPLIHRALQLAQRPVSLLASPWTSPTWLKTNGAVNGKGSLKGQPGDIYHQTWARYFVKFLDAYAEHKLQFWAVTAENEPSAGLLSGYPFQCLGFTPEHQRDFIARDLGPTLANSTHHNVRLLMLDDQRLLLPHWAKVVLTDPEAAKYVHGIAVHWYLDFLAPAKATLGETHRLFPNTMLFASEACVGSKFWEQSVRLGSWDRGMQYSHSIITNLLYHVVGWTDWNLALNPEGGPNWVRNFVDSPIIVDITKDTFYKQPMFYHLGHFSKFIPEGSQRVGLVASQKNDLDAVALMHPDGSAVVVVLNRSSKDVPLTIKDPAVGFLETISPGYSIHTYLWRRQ
row,SMILES,Potency
1,COc1ccc2cc(CN(CCO)C(=O)c3ccc(Br)cc3)c(=O)[nH]c2c1,inactive: > 76.9 µM
2,CC1OC(Nc2ccc(OC(F)(F)F)cc2)C(O)C(O)C1O (centres undefined),inactive: > 76.9 µM
3,O=C1CC(c2cccs2)Sc2nc3ccccc3n21 (centres undefined),inactive: > 76.9 µM
4,COc1ccc(C)cc1NC(=O)c1ccc2c(c1)OCO2,inactive: > 76.9 µM
5,Cc1ccc(S(=O)(=O)Nc2ccccc2CNc2c(C)n(C)n(-c3ccccc3)c2=O)cc1,inactive: > 76.9 µM
6,COC(=O)CSc1nnc(CNC(=O)c2cccc(C)c2)n1-c1ccccc1OC,inactive: > 76.9 µM
7,N#Cc1cc2c(nc1SCc1ccccc1)CCCC2=O,inactive: > 76.9 µM
8,CCOc1ccccc1CNC(=O)CCN1C(=O)COc2ccccc21,inactive: > 76.9 µM
9,Cc1cccc(NC2(C(F)(F)F)N=C3SCCN3C2=O)n1 (centres undefined),inactive: > 76.9 µM
10,CCOC(=O)Nc1cc(OCC)c(NC(=O)C2CC2)cc1OCC,inactive: > 76.9 µM
11,CCc1ccc2oc(-c3cc(N=Cc4cccc(OC)c4O)ccc3O)nc2c1,inactive: > 76.9 µM
12,Cc1cc(NC(=O)CCn2c(=O)sc3ccccc32)no1,inactive: > 76.9 µM
13,COc1cc(C(=O)Nc2ccccc2N2CCN(S(C)(=O)=O)CC2)cc(OC)c1OC,inactive: > 76.9 µM
14,Cc1cc2c(=O)n(Cc3ccco3)c(SCC(=O)NCc3ccco3)nc2s1,inactive: > 76.9 µM
15,O=c1c2ccccc2nc(-c2ccccc2)n1CCCN1CCOCC1,inactive: > 76.9 µM
16,COc1cc2c(C(=O)NCc3ccc4c(c3)OCO4)cn(C)c(=O)c2cc1OC,inactive: > 76.9 µM
17,COc1ccc(N2C(N)=C(C#N)C(c3cccnc3)C3=C2CC(C)(C)CC3=O)cc1 (centres undefined),inactive: > 76.9 µM
18,Cc1cc(C(=O)Nc2cccc(O)c2)c(C)o1,inactive: > 76.9 µM
19,Cc1ccc2cc3c(NC(=O)c4ccco4)nn(CC(C)C)c3nc2c1,inactive: > 76.9 µM
20,COCc1nnc(NC(=O)CC(C)c2ccccc2)s1 (centres undefined),inactive: > 76.9 µM

row,SMILES,Potency
1,CCNc1cc(=O)n(C)c(=O)n1C,inactive: > 76.9 µM
2,Cn1cnc2c1c(=O)n(CC(O)CO)c(=O)n2C (centres undefined),inactive: > 76.9 µM
3,COCCNC(=O)CN1CCC(NC(=O)Nc2ccccc2)CC1,inactive: > 76.9 µM
4,CCN(CC)c1ccc(C2C(C(=O)OC)=C(C)NC(C)=C2C(=O)OC)cc1,inactive: > 76.9 µM
5,Cc1nc2cc(NC(=O)NCCC3=CCCCC3)ccc2o1,inactive: > 76.9 µM
6,CCOC(=O)C1CCCN(C2CC(=O)N(c3cccc(C(F)(F)F)c3)C2=O)C1 (centres undefined),inactive: > 76.9 µM
7,Cc1cc2nc(SCC(=O)O)nc(C)c2cc1C,inactive: > 76.9 µM
8,CC(C)CCNC(=O)CN(Cc1ccc2c(c1)OCO2)C(=O)CCC(=O)Nc1ccccn1,inactive: > 76.9 µM
9,Cc1ccc(Cn2nnc3c(=O)n(CC(=O)NCc4ccco4)cnc32)cc1,inactive: > 76.9 µM
10,CCOC(=O)CS(=O)(=O)c1ccc2ccccc2c1,inactive: > 76.9 µM
11,O=C1CC(N2CCOCC2)C(=O)N1Cc1ccc(N2CCCC2=O)cc1 (centres undefined),inactive: > 76.9 µM
12,COc1cc(C)c(S(=O)(=O)NCc2cccs2)cc1C,inactive: > 76.9 µM
13,O=C(Nc1nc2ccccc2s1)C1CCCN1S(=O)(=O)c1ccc(Cl)cc1 (centres undefined),inactive: > 76.9 µM
14,CCC(C)(C(=O)NC1CCCC1)N(CC1CCCO1)C(=O)CNC(=O)c1ccccc1 (centres undefined),inactive: > 76.9 µM
15,CCCc1[nH]nc2c1C(CCc1ccccc1)C(C#N)=C(N)O2 (centres undefined),inactive: > 76.9 µM
16,O=C(COC(=O)CSc1nnc(-c2ccc(Cl)cc2)o1)NCc1ccc2c(c1)OCO2,active: 11 µM
17,COc1ccc(C(=O)c2ccccc2)c(O)c1,inactive: > 76.9 µM
18,O=C(CCc1ccc(CCC(=O)c2cccs2)s1)c1cccs1,inactive: > 76.9 µM
19,CCn1c(SCC(=O)Nc2ccccc2C)nnc1-c1ccccc1O,inactive: > 76.9 µM
20,CCn1c(Cc2ccc(OC)cc2)nnc1SCC(=O)NC1CCCCC1,inactive: > 76.9 µM

row,SMILES,Potency
1,COc1cc(C(N)=O)cc(Br)c1OC,inactive: > 76.9 µM
2,COc1ccccc1N1CCN(C(=O)c2cnn3cccnc23)CC1,inactive: > 76.9 µM
3,CCCCC(=O)Nc1ccccc1C#N,inactive: > 76.9 µM
4,CCC(C)C(=O)Nc1nnc(-c2cccs2)s1 (centres undefined),inactive: > 76.9 µM
5,Nc1cc(Cl)ccc1N1CCOCC1,inactive: > 76.9 µM
6,CC(C)OC(=O)CN1CCN(C2c3ccccc3-c3ccccc32)CC1,inactive: > 76.9 µM
7,Cc1ccc(-c2ccc(=O)n(CC(=O)NCCCN3CCCCC3C)n2)cc1 (centres undefined),inactive: > 76.9 µM
8,O=C(CN1C(=O)NC2(CCCC2)C1=O)Nc1cccc(-c2nnc3n2CCCCC3)c1,inactive: > 76.9 µM
9,Cn1c(=S)[nH]c2cccnc21,inactive: > 76.9 µM
10,C[n+]1cnn2c1SCC1(COC1)C2,inactive: > 76.9 µM
11,CN1C(C)(C)CC(NC(=O)CCC(=O)NC2CC(C)(C)N(C)C(C)(C)C2)CC1(C)C,inactive: > 76.9 µM
12,COc1ccc(C(=O)Nn2c(SCC(=O)NCC3CCCO3)nc3ccccc3c2=O)cc1 (centres undefined),inactive: > 76.9 µM
13,Cc1ccc(C(=O)CNc2nc3c(c(=O)[nH]c(=O)n3C)n2Cc2ccccc2)cc1,inactive: > 76.9 µM
14,COc1ccc(-n2ncc3c(NCCCN4CCOCC4)ncnc32)cc1,inactive
15,Cc1ccc(-c2nnn(CC(=O)Nc3ccc(S(=O)(=O)N4CCC(C)CC4)cc3)n2)cc1,inactive: > 76.9 µM
16,CCOC(=O)C1CCN(S(=O)(=O)c2ccc(OCC)cc2)CC1,inactive: > 76.9 µM
17,Cc1ccc(OCCCC(=O)Nc2ccc(S(=O)(=O)Nc3cc(C)on3)cc2)cc1,inactive: > 76.9 µM
18,Cc1ccc2c(C(=O)CN3CCN(c4ccccc4)CC3)c(C)[nH]c2c1,inactive: > 76.9 µM
19,C/C(Nc1ccc(F)cc1)=C(/C#N)C(N)=O,inactive: > 76.9 µM
